Measurements as given in PubChem BioAssay AID588453 (National Center for Advancing Translational Sciences (NCATS), 2011).
Where “and” joins values, the source holds several entries; their conditions need not be identical. Equal entries are not always repeated. The campaign covered roughly 390,000 compounds. About 4,000 (1%) were called active. The inconclusive results got no clear call from the source; some entries with a clear call stand among them for comparison. The call rests on the fitted dose curve; in most records, active means well fitted inhibition curve with a large enough effect; inconclusive means small, poorly fitted or top-dose-only effect; inactive means no such curve, though single readings can be large or run the other way. Where the call is inconclusive, the potency comes from a doubtful curve fit.

Target: Thioredoxin reductase 1, cytoplasmic (Rattus norvegicus) (UniProt O89049)
UniProt O89049, sequence (O89049 whole entry, looked up): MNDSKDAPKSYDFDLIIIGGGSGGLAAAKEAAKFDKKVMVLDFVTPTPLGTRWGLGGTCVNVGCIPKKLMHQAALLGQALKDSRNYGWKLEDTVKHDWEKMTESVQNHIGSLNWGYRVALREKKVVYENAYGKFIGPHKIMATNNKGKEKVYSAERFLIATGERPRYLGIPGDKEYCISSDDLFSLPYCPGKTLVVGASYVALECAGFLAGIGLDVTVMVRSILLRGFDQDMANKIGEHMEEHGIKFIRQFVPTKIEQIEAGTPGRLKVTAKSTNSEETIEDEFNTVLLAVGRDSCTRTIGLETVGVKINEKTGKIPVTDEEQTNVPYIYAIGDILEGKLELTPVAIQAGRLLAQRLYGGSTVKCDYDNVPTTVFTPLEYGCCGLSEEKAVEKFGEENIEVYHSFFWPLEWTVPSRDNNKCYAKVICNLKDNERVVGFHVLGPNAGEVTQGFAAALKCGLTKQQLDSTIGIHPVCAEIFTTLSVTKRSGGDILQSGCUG
Experiment: qHTS Assay for Inhibitors of Mammalian Selenoprotein Thioredoxin Reductase 1 (TrxR1): qHTS; further: nearly all actives have a fitted effect of over 65% in size
Conditions: recombinant rTrxR1, NADPH fluorescence consumption, selenite substrate; series mostly up to 114 µM
Outline: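 Rat TrxR1 (90 nM in the dispensed reagent) was pre-reduced with 400 uM NADPH for 5 min at room temperature, then incubated with compound for 15 min. After 400 uM selenite was added, NADPH fluorescence (Ex 340/Em 450 nm) was followed for 8 min.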
Potency means the concentration at half of the fitted maximal effect; tags describe the fitted curve by direction and shape.

SMILES | Potency
CSc1ccc(-c2nc3ncccn3c2Nc2ccc(C)c(C)c2)cc1 | inconclusive: 50.1 µM [inhibitor, partial curve]
Cc1ccccc1OCCC(=O)Nc1ccc2c(C)cc(=O)oc2c1 | inconclusive: 20 µM [inhibitor, full curve]
C1=C(c2ccccc2)Nc2ncnn2C1c1ccccc1 (centres undefined) | active: 31.6 µM
CC(N)(Cc1ccc(O)c(O)c1)C(=O)O (centres undefined) | inconclusive: 18.9 µM [inhibitor, partial curve] and inconclusive: 2.99 µM [inhibitor, full curve]
Brc1ccc(-c2c[n+]3c(n2-c2ccccc2)SCC3)cc1 | inactive
Cc1ccc(-c2nc3c(c(SCC(=O)N4CCOCC4)n2)Cc2c(CO)cnc(C)c2O3)cc1 | inconclusive: 89.1 µM [inhibitor, single point]
Cc1oc(C)c2c(=O)cc(-c3ccc4c(c3)OCO4)cc(OC(=O)c3ccccc3Cl)c12 | inconclusive: 56.2 µM [inhibitor, single point]
O=C(/C=C/c1ccccn1)c1ccc(Br)cc1O | inconclusive: 50.1 µM [inhibitor, partial curve, poor fit]
CSc1nsc(/C=C/Nc2ccc(F)cc2)c1C#N | inconclusive: 89.1 µM [inhibitor, single point]
O=C(Nc1ccc(-c2nc3ncccc3o2)cc1)c1ccco1 | active: 39.8 µM
COc1ccc(NC(=O)C2CCCN(S(=O)(=O)c3ccc4c(c3)CCCN4C(C)=O)C2)cc1Cl (centres undefined) | inactive
O=C(/C=C/c1cccs1)NC(=S)NNC(=O)Cc1cccs1 | inconclusive: 22.4 µM [inhibitor, full curve]
O=C(Nc1ccc(Br)cc1Cl)c1cnccn1 | inconclusive: 44.7 µM [inhibitor, partial curve]
CN(CC(=O)Nc1ccc(Cl)c(C(F)(F)F)c1)C(=O)/C=C/c1ccco1 | inconclusive: 44.7 µM [inhibitor, partial curve]
CC(C(=O)c1ccccc1)[n+]1ccc(Cl)c2ccc(Cl)cc21 (centres undefined) | inactive
C/C(=C\[C@@H](NP(=O)(c1ccccc1)c1ccccc1)c1ccccc1)CO[Si](c1ccccc1)(c1ccccc1)C(C)(C)C | inactive
NC(=O)C1CCN(C(=O)CN2CCc3ccccc32)CC1 | inconclusive: 39.8 µM [inhibitor, partial curve, poor fit]
COc1cc(C)c(/C=C(\C#N)C(=O)Nc2ccc(C)cc2)cc1C(C)C | inconclusive: 7.08 µM [inhibitor, single point]
O=C1NC(c2ccccn2)Nc2sc3c(c21)CCC3 (centres undefined) | inconclusive: 70.8 µM [inhibitor, single point]
